# Assay results published in PubChem BioAssay AID1671194 (National Center for Advancing Translational Sciences (NCATS), 2021).
# The whole screen tested about 140,000 compounds, of which about 240 (0.17%) were called active. The inconclusive results got no clear call from the source; some entries with a clear call stand among them for comparison. Calls follow the shape of the dose curve; as a rule, active = well fitted inhibition curve with a large enough effect; inconclusive = small, poorly fitted or top-dose-only effect; inactive = no such curve, though single readings can be large or run the other way. Potencies of inconclusive entries are doubtful fits and often do not repeat.
# Assay: Primary qHTS assay for inhibitors of alpha-synuclein gene (SNCA) expression; also: nearly all actives have a fitted effect of over 45% in size
# Details: HEK-293 SNCA-luciferase knock-in, luminescence, 24 h; series mostly up to 57.2 µM
# Potency is read from the fitted curve at half-maximal effect; tags tell the direction and shape of the fitted curve.
row,Structure (SMILES),Potency
1,CN1CCN(C(=O)C2CCCN(C3CCN(c4cc(C#N)ccn4)CC3)C2)CC1 (stereo not drawn),"inconclusive: 2.82 µM [inhibitor, full curve]"
2,Cc1cc(C[C@@H]2COC[C@@H]2NC(=O)c2ccccc2-c2ccc(F)cc2)on1,inactive
3,O=C(Cc1ccccc1)N1CCC2(CC1)CC(N(Cc1ccccc1)C1CC1)CCO2 (stereo not drawn),"inconclusive: 39.8 µM [inhibitor, single point]"
4,C=CCNC(=O)C[C@@H]1CCN(C(=O)CCCCC)C[C@@H]1CC,"inconclusive: 12.6 µM [inhibitor, single point]"
5,CN1CCN(CC2(O)CCC3(CCN(S(=O)(=O)N(C)C)CC3)CC2)CC1,inactive
6,C=CCN(Cc1cnc(-c2cccc(C)c2)nc1)Cc1ccccn1,"inconclusive: 3.98 µM [inhibitor, single point]"
7,CC(c1ccon1)N(C)C(=O)c1cc(CN2CCC(Cc3ccccc3)CC2)on1 (stereo not drawn),"inconclusive: 12.6 µM [inhibitor, single point]"
8,CNC(=O)C(C)(C)N1CCC[C@H]1C(=O)NCCc1ccccc1,inactive
9,CN(C)C[C@@H]1CN(Cc2ccccc2)C[C@H]1NS(=O)(=O)c1cccc(F)c1,inactive
10,COc1ccc(OCC2CN(Cc3ccccc3)C(=O)c3ccc(C)nc3O2)cc1 (stereo not drawn),inactive
11,O=C(C[C@@H]1CCNC[C@@H]1Cc1cc(-c2ccc(F)cc2)on1)N1CCC(Cc2ccccc2)CC1,"inconclusive: 4.47 µM [inhibitor, partial curve, poor fit]"
12,CN1CC2(CCN(Cc3ccc(-c4ccc(Cl)cc4)o3)C2)OC1=O (stereo not drawn),inactive
13,O=C(NC1CCCCC1)[C@@H]1C[C@@H](O)CN1C1CCN(C(=O)c2cc(F)ccc2F)CC1,"inconclusive: 3.55 µM [inhibitor, single point]"
14,CCc1ccccc1NC(=O)Cn1cccc1-c1nc(-c2ccccc2)no1,"inconclusive: 12.6 µM [inhibitor, partial curve, poor fit]"
15,O=C(c1ccc2c(c1)OCO2)N1CCC2(CC1)N=C(c1ccc(Br)cc1)NO2,inactive
16,COc1ccc(OC)c(C2c3c(-c4ccc(Br)cc4)n[nH]c3C(=O)N2c2ccc(Cl)cc2)c1 (stereo not drawn),"inconclusive: 39.8 µM [inhibitor, single point]"
17,O=C(c1cccc(Cl)c1)N1CCN(C(=O)c2nc3cccnc3n(Cc3ccccc3)c2=O)CC1,inactive
18,COc1cccc([S+](=O)([O-])N2CCC3(COc4ccccc4C(=O)N3)C2)c1 (stereo not drawn),inactive
19,COC1CCN(C(=O)c2cnc3c(c2)N([S+](=O)([O-])c2cccnc2)CCC3)CC1,inactive
20,Cn1nc(-c2ccccc2F)c2cc(C(=O)NCc3ccc(Cl)cc3)sc21,"inconclusive: 35.5 µM [inhibitor, single point]"
21,COc1ccc2[nH]c(C[C@@H]3C[C@@H](C(C)C)[C@H](CNC4CCN(C(C)=O)CC4)C=C3C)nc2n1,inactive
22,Cn1cccc1CN[C@H]1[C@H](O)[C@@H](N2CCCC2)[C@@H]2OC[C@H]1O2,inactive

row,Structure (SMILES),Potency
1,CCN(C)C(=O)CCc1c(C)nn(-c2cccc(C)c2)c1Oc1ccccc1,inactive
2,Cc1cccc(C)c1-c1nnc2ccc(C(=O)N3CCN(C)CC3)cn12,inactive
3,Cc1cccc(CCNC(=O)C2CCC(CNS(=O)(=O)c3c(C)cc(C)cc3C)CC2)c1 (stereo not drawn),"inconclusive: 44.7 µM [inhibitor, partial curve, poor fit]"
4,COc1ccc(-n2ncc(C(=O)N3CCN(Cc4ccccc4)CC3)c2C2CCN(C(=O)OC(C)(C)C)CC2)cc1,"inconclusive: 39.8 µM [inhibitor, single point]"
5,CCOC(=O)c1ccc(NC(=O)CC2C(=O)N(c3ccccc3)C(=O)N2Cc2ccc(C)cc2)cc1 (stereo not drawn),"inconclusive: 0.178 µM [inhibitor, single point]"
6,CC(C)(C)C(=O)Nc1ccc(-c2nc3ccccc3s2)cc1,active: 1.41 µM
7,CN1CC(=O)N(C2CCC2)Cc2c(NCc3ccccc3)ncnc21,"inconclusive: 6.31 µM [inhibitor, full curve, poor fit]"
8,O=C(c1ccsc1)N1CCC2(CC1)CC(N(Cc1ccccc1)C1CC1)CCO2 (stereo not drawn),"inconclusive: 8.91 µM [inhibitor, single point]"
9,COc1cccc(-c2cc(C3CCN(C(=O)c4ccc(Cl)cc4)CC3)[nH]n2)c1,inactive
10,CN(Cc1ccccc1)c1ccc2cc(S(=O)(=O)N3CCCCC3)ccc2n1,active: 25.1 µM
11,COc1ccc(NC(=O)CC2C(=O)N(c3ccc(OC)cc3)C(=O)N2Cc2ccc(OC)c(OC)c2)cc1 (stereo not drawn),"inconclusive: 7.08 µM [inhibitor, single point]"
12,COCC(=O)Nc1ccc(-c2noc([C@@H]3CCCN3Cc3cc4ccccc4o3)n2)cn1,inactive
13,COCCCNC(=O)C1CCN(Cc2cc3ccccc3n2Cc2cccc(Cl)c2)CC1,"inconclusive: 0.282 µM [inhibitor, single point]"
14,CCC1c2nccn2CCCN1C(=O)Cc1ccc(OC)cc1 (stereo not drawn),"inconclusive: 7.08 µM [inhibitor, full curve, poor fit]"
15,COc1cccc(CNC(=O)[C@@H]2C[C@@H](O)CN2C2CCN(C(=O)c3cccc(C)c3)CC2)c1,"inconclusive: 25.1 µM [inhibitor, partial curve, poor fit]"
16,COc1ccccc1-c1ccnc(N[C@H]2CO[C@H]3[C@@H]2OC[C@@H]3NS(C)(=O)=O)n1,inactive
17,COc1cc(NC(=O)CSc2cc(=O)n(C)c3ccccc23)cc(OC)c1OC,"inconclusive: 5.01 µM [inhibitor, partial curve, poor fit]"
18,O=C1OC[C@@H]2CCN(Cc3cccc(Cl)c3)Cc3ccc(F)cc3N12,inactive
19,c1ccc(-c2oc3ncnc(NC[C@@H]4CCCO4)c3c2-c2ccccc2)cc1,"inconclusive: 48.2 µM [inhibitor, single point]"
20,O=C(CN1C(=O)NC(c2ccccc2Cl)C2=C1COC2=O)Nc1ccc(C(F)(F)F)cc1 (stereo not drawn),"inconclusive: 10 µM [inhibitor, partial curve, poor fit]"
21,COc1ccccc1-c1cc2c(ccn2C)c(C(=O)NCC2CCOCC2)n1,inactive
